Assay results taken from paper PMC6919601, “Identification of Plasmodium dipeptidyl aminopeptidase allosteric inhibitors by high throughput screening” (PLoS ONE, 2019).
Values joined by “and” are separate entries in the source; they are usually repeats but may differ in a detail not shown here. Equal values may be shown once. About 230 (0.21%) of roughly 110,000 compounds showed an effect of 50% or more. Some of the results follow.

Molecular target: DPAP1 (Plasmodium falciparum, UniProt Q8IIJ9)
Sequence (Q8IIJ9 whole entry, looked up): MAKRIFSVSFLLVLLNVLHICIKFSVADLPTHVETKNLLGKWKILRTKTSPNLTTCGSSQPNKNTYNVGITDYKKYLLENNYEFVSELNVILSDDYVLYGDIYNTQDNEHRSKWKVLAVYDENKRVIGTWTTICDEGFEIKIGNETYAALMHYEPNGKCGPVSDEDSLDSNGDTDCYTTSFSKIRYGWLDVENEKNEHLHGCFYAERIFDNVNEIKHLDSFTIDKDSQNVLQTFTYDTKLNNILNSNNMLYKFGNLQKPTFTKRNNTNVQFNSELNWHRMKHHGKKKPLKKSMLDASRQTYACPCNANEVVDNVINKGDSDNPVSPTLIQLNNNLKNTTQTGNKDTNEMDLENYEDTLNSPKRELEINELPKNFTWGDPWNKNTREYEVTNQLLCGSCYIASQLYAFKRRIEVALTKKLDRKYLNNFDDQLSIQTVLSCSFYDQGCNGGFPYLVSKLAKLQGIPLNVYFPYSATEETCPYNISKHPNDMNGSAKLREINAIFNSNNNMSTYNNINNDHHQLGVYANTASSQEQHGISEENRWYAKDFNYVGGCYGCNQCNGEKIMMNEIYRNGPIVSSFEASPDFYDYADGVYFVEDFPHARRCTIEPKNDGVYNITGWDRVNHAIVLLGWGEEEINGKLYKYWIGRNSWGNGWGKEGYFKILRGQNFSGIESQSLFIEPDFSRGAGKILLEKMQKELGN
Experiment: primary screen, percent inhibition; read by cleavage of a fluorogenic dipeptide substrate; higher = more effect of the substance
Parameters: species or system P. falciparum D10 trophozoite lysates; single well
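Note: 30 min substrate incubation versus DMSO and 10 µM JCP410 controls.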

Row | Structure (SMILES) | % Inhibition @ 10 uM
1 | N#Cc1c(NC(=O)c2ccccc2C(=O)O)sc2c1CCC2 | 2.67%
2 | CC1(C)c2ccccc2CN2C(=O)OC3(C)CCC1C23C (centres unmarked) | 2.01%
3 | Cc1ccccc1Cn1c(SCc2ccc(C(=O)O)cc2)nc2ccncc21 | -3.34%
4 | COc1cc(C2NC(C(=O)O)CS2)ccc1OCc1ccccc1Cl (centres unmarked) | -2.67%
5 | COc1cc(OC)cc(-c2nc3n(n2)C(c2ccc(Cl)cc2)C(C(N)=O)=C(C)N3)c1 (centres unmarked) | 5.17%
6 | COC(=O)C1=CN(C)C=C(C(=O)OC)C1c1cccc(Br)c1 | 3.45%
7 | CCOc1ccc(N(Cc2cc3cccc(C)c3nc2O)C(C)=O)cc1 | 0.727%
8 | Cc1ccc2c(c1)C(C)(C)C1(/C=C/c3cccnc3)NC(=O)CN21 (centres unmarked) | -0.641%
9 | Cc1cccc(CC(=O)Nc2c(C(=O)N3CCN(c4ncccn4)CC3)oc3ccccc23)c1 | -7.36%
10 | CCOc1ccccc1CNC(=O)CCn1nc(C)c2c(C)n(-c3ccccc3)nc2c1=O | 0.227%
11 | CCOCCCNC(=O)CCn1ccc2cc(S(=O)(=O)N3CCCC3)ccc21 | 2.65%
12 | Cc1nc2ccc(S(=O)(=O)NC(C(=O)NCCc3ccccc3)C(C)C)cc2s1 (centres unmarked) | -0.0115%
13 | Cc1cccc(NC(=O)c2cccc(C)c2)c1 | 6.18%
14 | CC(C(O)c1ccc2ccccc2c1)N1CCCCC1 (centres unmarked) | -3.8%
15 | CC1(C)CC2=Nc3ccccc3NC(c3ccc([N+](=O)[O-])cc3)C2=C(O)C1 (centres unmarked) | 0.467%
16 | CCc1ccc(/C=C/C(=O)c2c(C)cc(C)nc2O)cc1 | 1%
17 | Cc1sc(NC(=O)C2C3C=CC(CC3)C2C(=O)O)c(C(N)=O)c1C (centres unmarked) | -8.68%
18 | C/N=C1/c2c(C)c3cc(OC)ccc3n2CCN1C | 4.18%
19 | O=C(O)c1ccccc1C(=O)NCc1cccnc1 | -0.615%
20 | CCC(=O)Nc1ccc(S(=O)(=O)N2CCCCCC2)cc1 | -2.54%
21 | COc1ccc(N2C(=O)CC(Sc3ccc(Cl)cc3)C2=O)c(OC)c1 (centres unmarked) | -1.26%
22 | CC(=O)NC12CC3CC(C1)CC(n1ncc(NCc4ccccc4)c(Cl)c1=O)(C3)C2 | 6.37%

Row | Structure (SMILES) | % Inhibition @ 10 uM
23 | COc1ccc(-c2c3c(=O)n(C)c(=O)n(C)c3cn2C2CCCCCC2)cc1 | -1.35%
24 | COc1ccc(C2C(C(C)=O)=C(O)C(=O)N2CCc2c[nH]c3ccccc23)cc1OC (centres unmarked) | -3.95%
25 | Clc1cccc2c(N3CCN(Cc4ccc5c(c4)OCO5)CC3)cnnc12 | -3.45%
26 | Cc1[nH]nc2c1C(c1ccc(C(F)(F)F)cc1)C(C#N)=C(N)O2 (centres unmarked) | 3.05%
27 | OC1CCN(Cc2ccc(F)c(F)c2)C1 (centres unmarked) | 3.48%
28 | COc1ccc(OC)c(-c2cc(C(=O)Nc3ccncc3)c3ccccc3n2)c1 | 4.98%
29 | CCC(Sc1nc2ccncc2[nH]1)C(=O)NCc1ccc(C)cc1 (centres unmarked) | 8.62%
30 | CSc1ccc(CN2CCCC(C(N)=O)C2)cc1 (centres unmarked) | -7.02%
31 | CC1=C(C(=O)Nc2ccccc2F)C(c2ccc(Br)cc2)C2=C(O)CCCC2=N1 (centres unmarked) | 1.82%
32 | Cc1cc(OCC(=O)Nc2ccc3oc(-c4cccnc4)nc3c2)ccc1Cl | -1.55%
33 | Cc1cccc(OCCCC(=O)Nc2ccccc2F)c1 | -3.45%
34 | NC(=O)C1CCCN(Cc2ccc3ccccc3c2)C1 (centres unmarked) | -1.64%
35 | O=C(NCCCCc1ccccc1)Nc1cccc(Cl)c1 | -0.0404%
36 | COC(=O)c1oc2ccc(Cl)cc2c1N | -7.23%
37 | Cc1cc(CNC(=O)c2cccnc2Cl)c2ccccc2n1 | -4.04%
38 | Cn1c(=O)[nH]c(=O)c2c1nc(SCCc1ccccc1)n2Cc1ccc(Cl)cc1 | -0.053%
39 | Oc1nc(CN2CCN(c3cccc(Cl)c3)CC2)nc2ccccc12 | -2.34%
40 | COc1cccc(CCNC2CCc3ccccc3C2)c1 (centres unmarked) | -5.31%
41 | COc1ccc(N(CC(=O)NCc2ccc(Cl)cc2)S(C)(=O)=O)cc1Cl | 1.49%
42 | COc1ccc2nc(C)c3c(c2c1)SC(C)C3 (centres unmarked) | 4.88%
43 | COC(=O)CN1CCN(C(c2ccccc2)c2ccccc2)CC1 | -2.63%
44 | CC(CCc1ccco1)NC(=O)Cn1ncc2ccccc21 (centres unmarked) | 4.84%

Row | Structure (SMILES) | % Inhibition @ 10 uM
45 | Cc1ccc2cc(C)c(N3CCC(C)CC3)nc2c1 | 5.2%
46 | COc1cc2c(cc1C)C(=O)C(C1(O)C(=O)Nc3ccccc31)CC2 (centres unmarked) | -2.99%
47 | CCOc1ccc(C(=O)CC(=O)C(=O)NCc2ccc(F)cc2)cc1 | 4.01%
48 | O=C(O)C1c2ccccc2C(=O)N(Cc2ccc(F)cc2)C1c1ccc(O)c(O)c1 (centres unmarked) | -0.795%
49 | COc1ccc(-c2cc(C(=O)N3C(C)CCCC3C)no2)cc1 (centres unmarked) | 1.37%
50 | CCC1COC(c2cccn2Cc2cc(C)ccc2C)=N1 (centres unmarked) | -7.21%
51 | Oc1nncc2c3ccccc3n(Cc3ccccc3F)c12 | -3.53%
52 | C1=C2C3CCCCC3OC(c3cccnc3)C2CCC1 (centres unmarked) | 4.62%
53 | Cc1nc2c(c(C)nn2C)c(C)c1CCC(=O)NC1CCCCCC1 | 4.14%
54 | Cc1ccc(Cn2cc(CCC(=O)NCCN3CCCC3)c3ccccc32)cc1 | 3.02%
55 | Cc1ccc(C)c(NC(=O)c2cc[n+](C)cc2)c1 | -0.864%
56 | CC(C)NC(=S)N1CCn2c(nc3ccccc32)C1 | -2.88%
57 | Cc1ccc2c(c1)-c1c(cnn1CC(=O)N1CCN(C(=O)c3ccco3)CC1)CO2 | 1.31%
58 | CC(NC(=O)CCCn1ncn2c(cc3occc32)c1=O)c1ccccc1 (centres unmarked) | -7.54%
59 | O=C(NCC1CCCO1)c1cc(S(=O)(=O)N2CCCC2)c(Cl)cc1Cl (centres unmarked) | 0.413%
60 | CC1=CC2=NC(=O)/C(=C\c3ccc(OCCOc4ccccc4Cl)cc3)C(=N)N2O1 | -3.23%
61 | CCn1cc(Cl)c(C(=O)Nc2cc3oc4ccccc4c3cc2OC)n1 | 4.65%
62 | Cc1ccc(-c2nc3cc(NC(=O)C(C)C)ccc3o2)cc1 | -2.89% and -3.94%
63 | CCOC(=O)c1nnn(-c2nonc2N)c1CS(=O)(=O)c1ccccc1 | 4.84%
64 | O=C(O)CCCS(=O)(=O)c1nc(-c2cccs2)cc(C(F)(F)F)n1 | 11.6%
65 | O=C(NCCc1ccc(Cl)cc1)C1CCCO1 (centres unmarked) | -0.834%
